In the supplement of paper PMC11417369:
± gives the standard deviation of the averaged measurements. Some of the results follow.

Tested on: PfAP2-EXP AP2 domain (GST-tagged)
Assay: gcPBM binding intensity (ln(normalized median fluorescence intensity)); higher = stronger DNA binding
Outline: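 Probes on an Agilent 4 × 180k array were primer-extended, double-stranded and 36 bp long, taken from intergenic genomic regions, with negative controls added. GST-tagged P. falciparum DNA-binding domains from E. coli, about 25 μg on average, were applied to the array for 1 h in 1× PBS containing 1% milk, 0.2 mg/ml BSA, 0.5% salmon testes DNA and 0.03% Triton X-100. Binding intensity, obtained after Alexa488 anti-GST antibody detection and a 488 nm scan, is the highest Masliner-normalised natural-log median intensity across replicate spots of either probe orientation.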

Row | Sequence | gcPBM binding intensity (ln)
1 | TGTGTTCATATATGCACACGCATATATATTATTGTT [CACACA_site3822] | 8.63 ± 0.23
2 | TGTGTCCATTGAACAGTGCAATAAAAACTTTTACAT | 8.78 ± 0.17
3 | TTTATATTTATATTGGGTACATAAAAAGCTTGAAAT [XGTACX_site8248] | 8.54 ± 0.34
4 | ATTTTTATTCTTATTACACACCTAAATATAAAATAT [CACACA_site2064] | 8.72 ± 0.38
5 | AAAGGGGAAAATATTATACATATAATAAATCCGTAT [XGTACX_negctrl_site355] | 8.47 ± 0.38
6 | AAAAAAAAAAAACACACACACACACCGATACATACA [CACACA_site8849] | 8.56 ± 0.57
7 | TTTTTTTTTTTGTGGTGTACCTTTATTTCCTTTTAG [XGTACX_site6934] | 8.57 ± 0.49
8 | AGTAATAAAAGTAGAAGTACAATACTTCAAAGATAT [XGTACX_site8562] | 8.73 ± 0.37
9 | TATTTCAAAATATGGGTGCAGTTCTTCATGATATAT [GTGCAC_site9658] | 8.66 ± 0.085
10 | GTTCTAAAAGTTAATGCATGTTATAAGTTTCCCTCT [TGCATGCA_site94] | 8.81 ± 0.55
11 | TGCTATTTTTTCCTTTTTTTGTATCACAATCATATA [CACACA_negctrl_site1576] | 8.64 ± 0.45
12 | TTATACTTTGGGTGGTGTACTATATTATGCTTATAA [XGTACX_site1106] | 9.16 ± 0.55
13 | ATGTATATATTTACGTGTACATATTCATGTGATATC [XGTACX_site5871] | 8.6 ± 0.35
14 | ATTAAACATAAATATGCACACATATACATATATTCA [CACACA_site8850] | 8.34 ± 0.26
15 | TATCTTTTTACAATAGTGCATATGTTATCATTAATA [GTGCAC_site9489] | 8.75 ± 0.28
16 | TTTATTTATTAATACACACACACACCCAGACAAAAT [CACACA_site4292] | 9.28 ± 0.59
17 | ATTTGCCCATTTAATTAACACACAAATGTTTATATT [CACACA_site8145] | 8.81 ± 0.48
18 | AGATATATAAATATTACACACTATATATCTATTTAT [CACACA_site6466] | 8.49 ± 0.39
19 | ACTATTTAATATAGGGTGCAACTTTTTCAAGTAAAT [GTGCAC_site9853] | 9.06 ± 0.15
20 | TTTCTTTTTTGATGCGTGCACATTTGTTTATTTTTC [GTGCAC_site9792] | 9.03 ± 0.3
21 | ATTATATACATTTTAGTGCATTACATAATAATATAA [GTGCAC_site9836] | 8.84 ± 0.18
22 | GTATGCATTATATACACACATACATTTATATATTCT [CACACA_site115] | 8.73 ± 0.29

Row | Sequence | gcPBM binding intensity (ln)
23 | TTTATTTATTATTGTTGTACACTTTTTATAAAAAAA [XGTACX_site5114] | 8.71 ± 0.33
24 | ATGTATATAATATTATGTACATATATGAAATATTTT [XGTACX_site8168] | 8.57 ± 0.28
25 | TGTTCTTATTTTATAAGCATATAATTAATCATAATG [CACACA_negctrl_site1493] | 8.2 ± 0.35
26 | ATAAGAAAAGGACACACACACAAAAAAAAAAAAAAA [CACACA_site7351] | 8.31 ± 0.57
27 | TAGTTTTTTATAAAATTATTTATATAAAGGTAAAAA [CACACA_negctrl_site490] | 8.45 ± 0.54
28 | AATATATTATAATATACACACATATATGCTCTTTAA [CACACA_site4131] | 8.57 ± 0.46
29 | ATTTAAAAGAAATAATGTACGAATCATATTTGATAT [XGTACX_site1785] | 8.4 ± 0.4
30 | ATATATTATATATATTTTAAGTAATTTGCAAAAAAT [GTGCAC_negctrl_site361] | 8.37 ± 0.5
31 | ATAGTATCTGGTAGCTGTACGAGTCGTAGAGTGCAG [XGTACX_site2020] | 8.87 ± 0.35
32 | ATTTATTAACCATATACACACATATATTTGTATTTA [CACACA_site6744] | 8.68 ± 0.4
33 | TTCCCTAATATTTGTTGTACTTGTTATATTTTTTTT [XGTACX_site5994] | 9.02 ± 0.4
34 | TATATTTGTAAGAAGAGTACTAAAAAAAGAATAAAG [XGTACX_site8704] | 8.99 ± 0.38
35 | ATATATATATATATATGTACGTACTCAGTTATGCCT [XGTACX_site453] | 10.1 ± 0.38
36 | ATACATATATATATATGTACATATGCACATATATAC [XGTACX_site7209] | 8.62 ± 0.092
37 | AACAATGTTTTCTTGTGTACACATCATTAAAGAAAA [XGTACX_site4726] | 8.68 ± 0.27
38 | TTCTATATAATTCAAACATGCACAGGAAATATTATA [TGCATGCA_site290] | 9.11 ± 0.43
39 | ATAATATATATATATACGCACACTTATGTACGGATT [CACACA_site2120] | 8.53 ± 0.25
40 | AAGAAAAAAGGGGACAAGGCATATCTATATATACAT [TGCATGCA_negctrl_site172] | 8.71 ± 0.38
41 | TATGTAACACATACTTGTACATATATAATTTTTTTA [XGTACX_site6251] | 8.14 ± 0.34
42 | ATATATATATCACGCACACACGAATTTTAAATATAT [CACACA_site5691] | 9.4 ± 0.11
43 | TTATTTTTACAATTTTAATAATAATACTAAAACAAA [XGTACX_negctrl_site538] | 8.11 ± 0.41
44 | TATTGTATGGTAGGATATGATGTTATTTGTTATAAT [CACACA_negctrl_site202] | 8.38 ± 0.4

Row | Sequence | gcPBM binding intensity (ln)
45 | TCTTTTGCCCAAAAAGGTACACACCACAATTTAAAT [XGTACX_site1482] | 8.92 ± 0.58
46 | TGCATAATTAAAAATGGTACACTGTATTTATAATAT [XGTACX_site1575] | 8.51 ± 0.3
47 | TATAAATTAAGATAACGTACATATAATAATATAAAC [XGTACX_site487] | 8.76 ± 0.42
48 | TGTACACCCAGAAATGCACACACATATATATATATA [CACACA_site8716] | 10.1 ± 0.33
49 | TGTACAGTATATACAACACACATTTGTATAAATATA [CACACA_site1002] | 8.59 ± 0.47
50 | AATAGAGTTGAATGCACACATACAAATTTTTAGTTT [CACACA_site3564] | 8.24 ± 0.19
51 | TATATATATTTTATGTGTACTCAATGTTATAACGCA [XGTACX_site8360] | 8.73 ± 0.27
52 | TTATATATGACTAACGGTTTTTTTTTTTTTTTTTTT [CACACA_negctrl_site576] | 8.77 ± 0.11
53 | AAAAAAATAATATAAATAATGAAAAGATATAAATAA [GTGCAC_negctrl_site432] | 8.54 ± 0.35
54 | TACATATATAAATATGTACACACATATGTATGATCT [CACACA_site9284] | 8.51 ± 0.3
55 | AATATAAGCAAATACACACACACATATAAATATGTA [CACACA_site7741] | 8.36 ± 0.46
56 | TTATTATATAAAGTTTCACACATTATTTGTTCAAAC [CACACA_site5218] | 8.3 ± 0.4
57 | ATATGAAGTATCGAATTAAGGGCAACAAATAAATTA [CACACA_negctrl_site1116] | 8.68 ± 0.52
58 | ATTGAGAGAAAAAAATGTACTTGATCAAAATGGATA [XGTACX_site1649] | 8.79 ± 0.55
59 | AGTAGTCTGGAGAAGAGTACACAGTATCTGGTAACA [XGTACX_site2032] | 8.45 ± 0.52
60 | TAATATCAATTTTTATGTACTTATATATATATATAT [XGTACX_site5879] | 10.02 ± 0.099
61 | AAAAATCATATAGGTTGTACGGGTAGTTTATTTTAT [XGTACX_site6936] | 8.54 ± 0.43
62 | GTGTATATATGTTATACACACAAAAATATTTTGTAT [CACACA_site265] | 8.44 ± 0.39
63 | AGATCAATAATGACAAGTACACAAAATAACATTTAA [XGTACX_site6968] | 8.57 ± 0.38
64 | AAAATATATTAAGGCACACACATACATATTTATATA [CACACA_site7707] | 8.59 ± 0.45
65 | ACAAAAAAAAAAAAAAAAAAAAAAAAAAAATAATAA [CACACA_negctrl_site1640] | 7.86 ± 0.5
66 | ATTTTGTAAAAGGTCATACACACATATTCAAAAGAA [CACACA_site2946] | 8.53 ± 0.38

Row | Sequence | gcPBM binding intensity (ln)
67 | AATATATATTAAATATGTACTTATTTTTTGGTTGCT [XGTACX_site3613] | 8.62 ± 0.31
68 | CGCACCCACAGACACACACACACATATATATATATA [CACACA_site2202] | 9.93 ± 0.81
69 | AAAGAATAATTAAATACACACATATTACAGTAAAAA [CACACA_site2450] | 8.76 ± 0.41
70 | TACATACAGAAACACACACACACATATATATATATA [CACACA_site2919] | 10 ± 0.28
71 | TTATACATATTTATATGTACGTAATATAATATTAAT [XGTACX_site6520] | 8.44 ± 0.26
72 | TTATAATTTTTCTATTGTACATTTAATAATATATAT [XGTACX_site7326] | 8.7 ± 0.35
73 | TATTTAATTTATACACGTACATATATAAATAATACA [XGTACX_site1148] | 8.5 ± 0.28
74 | ATGAAGAAATAAATGTGTACATATCTTAGTATCATA [XGTACX_site8658] | 8.58 ± 0.34
75 | TCATGGGTGTATTTCACACACGGATAATCATTTATA [CACACA_site4663] | 8.32 ± 0.45
76 | TATAATGATGATGATAGTACGTATTAGTATAAAAAA [XGTACX_site9] | 8.74 ± 0.42
77 | AGAAATAAAAAAAAAAATATATATATTATATATATA [CACACA_negctrl_site1799] | 8.955 ± 0.007
78 | ATATTTTTTTTTGTTACACACGTTTTTTAAAAAATG [CACACA_site1603] | 9.1 ± 0.51
79 | TCATAAAAATAAAAATGTACACATTAGAAATATTGT [XGTACX_site3671] | 8.51 ± 0.39
80 | TTACTATAAAATGTCACACATTCTGTTTCCTTACTT [CACACA_site5714] | 8.6 ± 0.49
81 | ATTTTTTCTCATAAAAACGTGAACGTTTATTTTACA [CACACA_negctrl_site1041] | 8.73 ± 0.38
82 | TCAACAAAATTGAAGGAACACACATACATATATATA [CACACA_site7940] | 8.87 ± 0.23
83 | TATAAATATCTGTATGCACACATTTTTTTTGGAAAA [CACACA_site4734] | 8.62 ± 0.37
84 | AGCACATAAATAATTAAACACACATTGTTCTAGACA [CACACA_site8746] | 8.41 ± 0.38
85 | ATTATAAAAGAATTTTTTTTTATTTCATTAAAATAT [CACACA_negctrl_site1137] | 7.88 ± 0.38
86 | AAAAAAATACATACGTGTACCCACATATATGTATCT [XGTACX_site5319] | 8.47 ± 0.29
87 | GTTTCTACTTATATAACAGGACACGTGTGAATAATT [TGCATGCA_negctrl_site430] | 9.13 ± 0.51
88 | AAAAAAAAAAAACATTGTACGCACATTTTATATGTC [XGTACX_site6974] | 8.71 ± 0.42
